# About 14,000 (4.5%) of roughly 310,000 compounds showed an effect of 50% or more. The effect is printed as a negative number. The list shows a part of the results.
# Target: human ether-à-go-go-related gene (hERG) potassium channel (human, UniProt Q12809)
# Assay: primary screen, population patch clamp on CHO cells stably expressing hERG
# 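Also: peak tail current of the secondary pulse compared with the same well before compound.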
# Sequence of human ether-à-go-go-related gene (hERG) potassium channel (Q12809 whole entry, looked up): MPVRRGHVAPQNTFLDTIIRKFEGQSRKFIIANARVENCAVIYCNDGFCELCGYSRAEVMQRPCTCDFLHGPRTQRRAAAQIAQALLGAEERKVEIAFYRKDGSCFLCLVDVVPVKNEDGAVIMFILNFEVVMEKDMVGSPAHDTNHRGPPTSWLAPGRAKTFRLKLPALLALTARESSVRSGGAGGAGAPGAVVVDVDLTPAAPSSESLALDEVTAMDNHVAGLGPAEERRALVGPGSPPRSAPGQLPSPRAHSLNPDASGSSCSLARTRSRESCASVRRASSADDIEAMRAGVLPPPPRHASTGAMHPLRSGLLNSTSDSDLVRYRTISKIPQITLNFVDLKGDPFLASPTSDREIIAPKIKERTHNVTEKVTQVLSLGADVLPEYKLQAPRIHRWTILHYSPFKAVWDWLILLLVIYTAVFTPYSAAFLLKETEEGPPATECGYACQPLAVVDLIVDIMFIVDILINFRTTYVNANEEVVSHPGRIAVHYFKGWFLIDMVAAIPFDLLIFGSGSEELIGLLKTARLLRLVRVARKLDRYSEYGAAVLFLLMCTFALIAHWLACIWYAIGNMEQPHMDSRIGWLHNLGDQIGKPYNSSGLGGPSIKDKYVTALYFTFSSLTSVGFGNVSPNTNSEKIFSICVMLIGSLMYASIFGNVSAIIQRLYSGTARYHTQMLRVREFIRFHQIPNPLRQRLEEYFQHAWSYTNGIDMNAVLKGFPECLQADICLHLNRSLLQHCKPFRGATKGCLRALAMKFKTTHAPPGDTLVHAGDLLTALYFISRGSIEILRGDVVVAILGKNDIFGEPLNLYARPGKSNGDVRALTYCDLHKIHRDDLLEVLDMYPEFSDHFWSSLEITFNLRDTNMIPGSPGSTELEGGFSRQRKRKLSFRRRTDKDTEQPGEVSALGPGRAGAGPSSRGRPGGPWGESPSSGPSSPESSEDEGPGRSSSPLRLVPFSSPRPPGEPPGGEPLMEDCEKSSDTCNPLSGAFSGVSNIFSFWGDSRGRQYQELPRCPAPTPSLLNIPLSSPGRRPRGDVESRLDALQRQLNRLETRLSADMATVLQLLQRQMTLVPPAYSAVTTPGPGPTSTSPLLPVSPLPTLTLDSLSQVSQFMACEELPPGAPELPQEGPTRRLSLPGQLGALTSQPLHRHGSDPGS
row,Compound,"hERG current change (%, negative = inhibition) at 10uM"
1,C/C(=N\Nc1ccc(C(F)(F)F)cc1[N+](=O)[O-])C1CC1,-10.3%
2,CC(=O)c1nnn(-c2c(F)cccc2F)c1C,3.16%
3,CCOC(=O)C1(Cc2ccc(OC)cc2)CCN(C(=O)CCn2cccn2)CC1,-7.25%
4,CCOC(=O)c1c(C)n(C)c2ccc(OC)c(NC(=O)CN3CCN(Cc4ccccc4)CC3)c12,-6.74%
5,CC1(C)CC(=O)C(C=NCCc2ccc(S(N)(=O)=O)cc2)=C(O)C1,5.46%
6,O=C(NCc1ccc(F)cc1)c1cnn2ccccc12,-4.56%
7,Cc1cc(C)nc(NC(=O)c2cc(-c3ccc(C)s3)nc3ccccc23)c1,14.9%
8,CS(=O)(=O)c1ccc2nc(NC(=O)c3cc4ccccc4o3)sc2c1,-10.1%
9,COc1ccc(C2=NS(=O)(=O)N(C)C(C(=O)Nc3ccc4c(c3)OCO4)=C2)cc1OC,1.51%
10,CCCCCOc1ccc(NC(=O)C2OC3OC(C)(C)OC3C3OC(C)(C)OC23)cc1 (stereo not drawn),-13.1%
11,O=[N+]([O-])c1ccc(CN2CC=C(c3ccccc3)CC2)cc1,-21.5%
12,C=CCn1c(SCC(=O)NCc2ccc3c(c2)OCO3)nc2scc(-c3ccccc3)c2c1=O,-7%
13,O=C(Cc1ccc2c(c1)CCCC2)Nc1ccccc1Cl,5.64%
14,CCOc1ccc(Cl)cc1S(=O)(=O)N1CCCC1,-6.06%
15,COc1ccc(-n2c(=O)cc(N3CCN(c4ccccc4OC)CC3)[nH]c2=O)cc1,-1.78%
16,COc1cccc(C(=O)NNS(=O)(=O)c2ccc(F)cc2)c1,9.31%
17,COCCN(C(=O)c1csnn1)C(C(=O)NC1CCCCC1)c1ccc(C)cc1 (stereo not drawn),9.88%
18,N#CCc1ccc(OC(=O)c2ccncc2)cc1,15.6%
19,Cc1nn(Cc2ccccc2Cl)c(C)c1C(=O)NC1=NCCS1,11.4%
20,N#C/C(=C\c1c[nH]c2ccccc12)C(=O)NC1CCCC1,0.831%
21,CC(=O)C1=C(C)NC(=O)NC1c1cccs1 (stereo not drawn),15.9%
22,Cc1ccc(C(=O)N2c3ccccc3N(Cc3ccccc3)C(=O)C2(C)C)cc1,-1.87%
23,O=C(CCSc1ccccc1)NCc1cccnc1,-2.31%

row,Compound,"hERG current change (%, negative = inhibition) at 10uM"
1,COCC1CCN(C(=O)c2ccc3oc(Cc4ccc(Cl)cc4)nc3c2)C1 (stereo not drawn),-14.1%
2,CSCCC(NS(=O)(=O)c1ccccc1F)C(=O)N1CCCCCC1 (stereo not drawn),-2.21%
3,Cc1nc2c(C)cccc2cc1C(=O)N/N=C/c1cccnc1,-1.69%
4,CCCn1nnnc1NCc1ccc(Cl)cc1Cl,4.68%
5,O=C(O)C1CCN(C(=O)c2csc(-c3ccc4c(c3)CCO4)n2)CC1,-1.32%
6,COCCn1c(=O)[nH]c2cc(C(=O)NCCN3CCN(c4ccccc4)CC3)ccc2c1=O,1.21%
7,Cc1c(CCC(=O)NCCCn2ccnc2)c(=O)oc2cc3occ(C(C)(C)C)c3cc12,-77.7%
8,Oc1ccc(Cl)c(Cl)c1Cl,12.8%
9,COc1ccc([C@H]2CC(=O)C=C(c3ccc4c(c3)sc3ccccc34)C2)cc1,13.4%
10,NC(=O)c1ccc(NC(=O)CSc2nnc(-c3ccccn3)n2N)cc1,17.1%
11,Cn1c(=O)c2[nH]c(NCC3CCCO3)nc2n(-c2ccccc2)c1=O (stereo not drawn),-4.21%
12,CC(C)Cc1ccc(C(C)C(=N)N)cc1.Cl (stereo not drawn),-6.14%
13,CCN1CC(C)C(O)(c2ccccc2)CC1C (stereo not drawn),8.36%
14,CN1N=C2c3ccccc3CCC2C1c1ccc(C(F)(F)F)cc1 (stereo not drawn),17%
15,Cc1cc2c(s1)c1cnn(Cc3ccccc3F)c(=O)c1n2C,12.5%
16,Cn1c(CCCOc2ccc(Cl)cc2Cl)nnc1SCC(=O)Nc1cccc(F)c1,-3.24%
17,Cc1cccc(NC(=O)Cc2ccc(Br)cc2)n1,1.47%
18,CC(C)CCN1CCN(Cc2ccc(C(F)(F)F)cc2)CC1CCO (stereo not drawn),-58.1%
19,Cc1ccc(CNC(=O)C2CC(=O)N(C3CCCCCC3)C2)cc1 (stereo not drawn),4.25%
20,S=C(NNc1ccnc2cc(Cl)ccc12)Nc1ccc(Cl)cc1Cl,17.5%
21,Cc1cc(C)cc(N(CCC#N)C(=O)COC(=O)c2ccccc2SCC(=O)N2CCCC2)c1,-19.4%
22,NS(=O)(=O)c1ccc(NC(=S)NC2CCCCC2)cc1,14.7%
23,Cc1cs/c(=N/C(=S)Nc2ccccc2)n1C,34.9%

row,Compound,"hERG current change (%, negative = inhibition) at 10uM"
1,Cc1ccc(CSc2nnc(-c3cccc(S(=O)(=O)N4CCOCC4)c3)n2CC(C)C)cc1,-29.5%
2,CN(C)CCNC(=O)CN1C(=O)COc2ccc(C(C)(C)C)cc21,-2.14%
3,CC(C)(C)Sc1nc(O)cc(=O)[nH]1,-14.2%
4,O=C(COc1ccc(-c2ccccc2)cc1)NNC(=O)Nc1ccc(F)cc1F,20.7%
5,O=C(NCc1csc(-c2cccs2)n1)C1CCCCC1,-14.3%
6,O=C(O)c1ccc(NS(=O)(=O)c2ccc(N3CCCC3)c([N+](=O)[O-])c2)cc1,11.3%
7,Cc1ccc2nc(SCC(=O)Nc3c(F)cccc3F)[nH]c2c1,-12.6%
8,CN(C)C(N)=NCCC[C@H](N)C(=O)O.Cl,9.67%
9,CN(C)C=Nc1nc2ccccc2nc1N1CCCC1,30.4%
10,COc1ccc(Br)c(OC)c1C(=O)NC(=O)Nc1c(F)cccc1F,9.25%
11,O=Cc1ccc(C(=O)OCC(=O)NCCC2=CCCCC2)cc1,5.53%
12,O=C1CCCC2=C1C1(CCCCC1)N=C(Nc1nc3ccccc3o1)N2,1.98%
13,Cc1ccc2[nH]cc(C(=O)CN3CCN(C)CC3)c2c1,-8.16%
14,CCc1cc(=O)oc2c3c(cc(OCC(=O)NCc4ccco4)c12)OC(C)(C)CC3,-10.2%
15,Cc1oc(-c2cccc(Cl)c2)nc1CS(=O)(=O)CC(=O)NCCN1CCCC1,-0.675%
16,CSc1ccc(S(=O)(=O)NCC(=O)OCC(=O)N(C)Cc2ccccc2)cc1[N+](=O)[O-],-15.2%
17,CCOc1ccc(NS(=O)(=O)c2ccc(C(=O)NCc3ccccn3)cc2)cc1,-15.7%
18,CCOC(=O)c1[nH]c2ccc(F)cc2c1N=C(C)N(CC)CC,-55.4%
19,O=Cc1c(Cl)cccc1Cl,13.9%
20,O=C1NC(=O)N(Cc2ccc(F)cc2)C(=O)/C1=C/c1cccs1,25.5%
21,CN(Cc1ccccc1)C1=CC(=[N+]2CCCCC2)CC(C)(C)C1.[I-],-54.3%
22,CCCCNC(=S)N(C)/N=C/c1ccc2c(c1)OCO2,-50.1%
23,Cc1ccc(S(=O)(=O)N(C)c2ccc(C(=O)Nc3ccccn3)cc2)cc1,-1.56%

row,Compound,"hERG current change (%, negative = inhibition) at 10uM"
1,O=C(NCc1ccco1)C1CC(=O)N(CCc2ccccc2)C1 (stereo not drawn),1.48%
2,O=C(NC1CC1)c1cccc(Nc2ccc(-c3ccc4c(c3)OCCO4)nn2)c1,-34.2%
3,COC(=O)CC1C(=O)NCCN1C(=O)CSc1nc2cc(Cl)ccc2o1 (stereo not drawn),13.5%
4,COC(=O)c1ccccc1S(=O)(=O)N1CCC(C(=O)NCc2ccco2)CC1,-9.91%
5,Cc1ccc(C2CC(c3cccc(C)c3)n3nc(N)nc3N2)cc1 (stereo not drawn),-15.8%
6,CCOC(=O)Cc1nc(-c2cccc(C(F)(F)F)c2)no1,-0.739%
7,C[C@@H](C[C@@H](O)[C@H](O)C(C)(C)O)[C@@H]1CC[C@]2(C)C3=CC[C@H]4C(C)(C)C(=O)CC[C@]4(C)[C@H]3CC[C@@]12C,11.1%
8,Cc1ccc(O)c(C(=O)c2cnc3c(c2)CN(C)C(=O)N3)c1,4.84%
9,Cc1ccc(CNC(=O)CCC(=O)Nc2nnc(C3CCCCC3)s2)cc1,17.6%
10,COC(=O)C1CC(=O)c2sccc2C1 (stereo not drawn),4.62%
11,Nc1ccc(-c2ccc(N)c([N+](=O)[O-])c2)cc1[N+](=O)[O-],11.5%
12,COc1ccc(CN=C2NC(=O)CC(C(=O)Nc3cc(C)cc(C)c3)S2)cc1 (stereo not drawn),-18.4%
13,O=C(NCc1ccco1)c1ccc(Cl)c(S(=O)(=O)N2CCCC2)c1,-9.61%
14,O=C1OC/C(=C(/O)c2ccc(Cl)cc2)C1=O,17%
15,Cc1ccc2nc(SCC(=O)Nc3cccc4ccccc34)nc(=O)n2c1,-14%
16,CC(C)CCNC(=O)C(C)N(C(=O)c1snc(C(N)=O)c1N)c1cnc2ccccc2c1 (stereo not drawn),-7.43%
17,O=C(Nc1cccc(S(=O)(=O)N2CCCCCC2)c1)C1CCN(C(=O)c2ccc(F)cc2)CC1,-88%
18,CCc1c(C)c(C#N)c2nc3ccccc3n2c1NCc1ccco1,-35.4%
19,COCCC(=O)N1CCC(Oc2ccc(C(=O)NCCC3=CCCCC3)cc2)CC1,-37.5%
20,O=C(O)c1ccc(CSc2ncn[nH]2)cc1,0.736%
21,NC(=O)[C@H]1CC2(CC(c3cccc(NC(=O)COc4ccc(Cl)cc4)c3)=NO2)CN1C(=O)Cc1ccc([N+](=O)[O-])cc1 (stereo partly drawn),-19.3%

# Source: paper PMC4336329 (PLoS ONE, 2015)
